The record followed here is patent publication US20120010254A1 (priority 2008, published 2012).

Consider `CCC(CC)OC1CC(C(=O)O)=CC(n2cc(CCc3ccccc3)nn2)C1NC(C)=O` (stereo not shown) [Compound 4, 4-Acetylamino-5-(1-ethyl-propoxy)-3-(4-phenethyl-[1,2,3]triazol-1-yl)-cyclohex-1-enecarboxylic acid], for which the Solubility in water result was “insoluble”.
